Experimental data: PubChem BioAssay AID1956 (SRMLSC, 2009)
The other results are listed elsewhere or left out. The main result of the screen is listed elsewhere. These columns were measured beside it and carry no call.

assay: enhancers of HSV replication in host cells, fold increase, host cell viability (AID 1956); details: HSV replication augmentation in cells; fold increase: measured here: primary screen fold increase 10 uM, at 10 µM, stronger effect = higher value; viability: measured here: host cell viability series, at 25 µM, stronger effect = lower value; further: tested in PC3 cells

| SMILES | fold increase | viability |
| --- | --- | --- |
| CCOc1ccccc1CNS(=O)(=O)c1ccc2c(c1)oc(=O)n2C | 1.41 | 100% |
| Cc1ccc(S(=O)(=O)N2CCN(c3nc(C)nc4sc5c(c34)CCC(C)C5)CC2)cc1 (stereo unspecified) | 1.59 | – |
| COc1ccc(C(=O)c2sc3nc(-c4ccccc4)ccc3c2N)cc1 | 4.28 | 94.5% |
| N/C(=N\OC(=O)CCC1CCCC1)c1cccnc1 | 1.58 | 99.4% |
| CCOC(=O)c1c2c3c(c(Cl)ccc3[nH]c1=O)C(=O)c1ccccc1-2 | 1.54 | 91.1% |
| Cc1cc(Oc2ccc(N)cn2)cc(C)c1Cl | 1.4 | 89.3% |
| C=CCOC(=O)C1=C(C)OC(N)=C(C#N)C1c1ccoc1 (stereo unspecified) | 1.41 | 99.6% |
| O=C(c1ccccc1)[C@@H]1[C@@H]2C(=O)N(c3ccc(F)cc3)C(=O)[C@@H]2C2CCCN21 (stereo partly specified) | 1.34 | 98.7% |
| O=c1oc2ccccc2c(NCc2cccc(F)c2)c1[N+](=O)[O-] | 1.53 | 103% |
| Cc1c(N2C(=O)/C(=C\c3ccc(N(C)C)cc3)N(C)C2=S)c(=O)n(-c2ccccc2)n1C | 3.22 | 88.9% |
| CCC(c1nnnn1CCc1ccccc1)N(Cc1ccco1)Cc1cc2c(C)ccc(C)c2[nH]c1=O (stereo unspecified) | 1.16 | – |
| Cc1ccc2nc(/C(C#N)=C\c3ccc([N+](=O)[O-])o3)[nH]c2c1 | 3.59 | 16.2% |
| O=[N+]([O-])c1ccc(N/N=C/c2sc(N3CCOCC3)nc2-c2ccccc2)c(S(=O)(=O)Nc2ccc(Cl)cc2)c1 | 1.59 | – |
| COc1ccc(Nc2nc3ccc(C)cc3cc2C#N)c(OC)c1 | 2.02 | 101% |
| COc1cc(/C=C2\C(=N)N3N=CSC3=NC2=O)cc(Br)c1OC(=O)c1ccco1 | 4.65 | – |
| Cc1ccc(S(=O)(=O)Oc2ccccc2/C=C2/SC(=O)NC2=O)cc1 | 1.32 | – |
| O=C(Cc1nc2ccccc2[nH]c1=O)c1ccccc1 | 1.47 | 91.3% |
| COc1cccc(C(=O)/C=C/Nc2ccc(S(=O)(=O)Nc3cnc4ccccc4n3)cc2)c1 | 1.32 | – |
| O=C1S/C(=C/c2ccc(N3CCOCC3)o2)C(=O)N1Cc1ccc(F)cc1 | 2.98 | 89.6% |
| Nc1ccccc1Nc1cc(-c2ccccc2)[nH]n1 | 1.8 | 40.2% |

| SMILES | fold increase | viability |
| --- | --- | --- |
| Cc1cc(C)nc(Nc2ncc(O)n2-c2ccc(Br)cc2)n1 | 1.49 | 101% |
| CCCCn1c(NS(=O)(=O)c2ccc(C)cc2)c(S(=O)(=O)c2ccccc2)c2nc3ccccc3nc21 | 1.34 | 88.9% |
| CC1CCN(c2ccccc2NC(=S)NC(=O)c2cccs2)CC1 | 1.32 | – |
| CC1CCN(Cc2c(O)ccc3c2O/C(=C\c2ccco2)C3=O)CC1 | 2.14 | – |
| CCN1CCN(C(c2cccs2)C(C)NC(=O)c2ccccc2F)CC1 (stereo unspecified) | 1.42 | 104% |
| Cc1ccc(NC(=O)CO/N=C/c2ccc(N(C)C)cc2)cc1 | 1.63 | 94.4% |
| COc1ccc(C2c3ccc(O)cc3Oc3ncn(Cc4ccco4)c(=N)c32)cc1OC (stereo unspecified) | 1.32 | – |
| O=C(Cn1nnc2c(cnn2-c2ccccc2)c1=O)NCc1cccs1 | 1.16 | – |
| Cc1cc(/C=C2\SC(=S)N(C)C2=O)c(C)n1-c1ccc(O)cc1 | 1.67 | 39.2% |
| CCOC(=O)CC(=O)CSc1nc(-c2ccc3c(c2)OCO3)cc(C(F)(F)F)c1C#N | 2.12 | 97.8% |
| COC(=O)CNC(=O)/C=C/c1ccc(OC)cc1 | 1.45 | 98.3% |
| CCOC(=O)N1CCN(C(=O)CN(C2CCCCC2)S(=O)(=O)c2ccc(Cl)cc2)CC1 | 1.41 | 100% |
| COc1cc2c3nnc(-c4ccc(F)cc4)c-3cn(Cc3ccccc3)c2cc1OC | 3.03 | 5.39% |
| O=S(=O)(Nc1ccc(Cc2ccncc2)cc1)c1ccc(Cl)c(Cl)c1 | 1.43 | 77.7% |
| CCCCC#Cc1cncc(C(=O)NN)c1 | 3.09 | 96.3% |
| O=C(O)CCCN1C(=O)/C(=C\c2ccc(-c3nc4ccccc4s3)o2)SC1=S | 2.06 | – |
| Cc1cc2cc(CNC(=O)c3ccc(Br)o3)ccc2n1C | 1.33 | – |
| CCOC(=O)CNc1ccc2c(c1)OCO2 | 1.51 | 91.8% |
| Cc1ccc2nc(/C(C#N)=C\c3ccc(N4CCOCC4)o3)[nH]c2c1 | 6.78 | 91.1% |
| Oc1c(Cl)cc(Cl)cc1/C=N/NC(=S)NC1CC2C=CC1C2 (stereo unspecified) | 1.36 | 81.5% |

| SMILES | fold increase | viability |
| --- | --- | --- |
| CC1CCN(c2nc3ccccc3nc2C(C#N)C(=O)OC2CCCCC2)CC1 (stereo unspecified) | 1.48 | 97.5% |
| CCCCNC(=O)/C(C#N)=c1\s/c(=C\c2ccccc2OC(F)F)c(=O)n1CCCOC | 2.69 | 97% |
| COc1cc(/C=C2\C(=O)ON=C2c2ccccc2)cc(Cl)c1O | 1.94 | 70.6% |
| Cc1ccc(S(=O)(=O)N2CC=C(c3c(C)n(C)c4ccccc34)CC2)cc1 | 1.32 | – |
| C=CCN1C=CC(=C/C=C(/C#N)C(=O)OCC)C=C1 | 2.2 | 94.5% |
| Cc1onc(-c2c(F)cccc2Cl)c1C(=O)c1ccccc1 | 1.37 | 97% |
| Cc1cccc(N2CCN(C(=O)CN3CCOc4ccccc43)CC2C)c1 (stereo unspecified) | 1.59 | 96.5% |
| COc1cc(/C=C(\C#N)c2nc3ccccc3s2)ccc1OCC(=O)Nc1ccccc1 | 1.39 | 94.8% |
| CC1CC(C)CN(S(=O)(=O)c2ccc(NC(=O)C3COc4ccccc4O3)cc2)C1 (stereo unspecified) | 1.32 | 89.9% |
| Cc1ccc(S(=O)(=O)c2c(N)n(/N=C/c3ccco3)c3nc4ccccc4nc23)cc1C | 1.21 | 87.4% |
| O=C(CSc1nnc(COc2cccc3ccccc23)o1)N1c2ccccc2CCc2ccccc21 | 1.15 | – |
| CC(=O)c1c(C)nc2sc3c(=N)n(N)cnc3c2c1-c1ccc(Cl)cc1 | 2.09 | 87.7% |
| c1ccc(-c2nc3ccccc3nc2-c2ccccn2)nc1 | 1.37 | 86.4% |
| CN1CCCC1CCNc1ccc2sc3ccccc3c(=O)c2c1 (stereo unspecified) | 1.35 | 22.6% |
| O=C1c2cccc3c(N4CCCCC4)ccc(c23)C(=O)N1c1ccccn1 | 30.3 | 77.2% |
| CCOc1ccc(/C=C2/SC(=O)NC2=S)cc1 | 1.39 | 81.1% |
| C=CCSc1nnc(C)c(/C=C/Nc2ccc(Cl)cc2)n1 | 1.64 | 93.9% |
| O=C(NCCc1ccccc1)c1cc(-c2ccco2)on1 | 1.63 | 91.7% |
| CCOC(=O)c1sc(-c2ccc(C(F)(F)F)cc2)nc1O | 1.49 | 105% |
| O=C(Cn1ccc(=O)[nH]c1=O)Nc1ccc(C(=O)O)c(O)c1 | 1.4 | 93.5% |
